Measurements taken from publication PMC4336329 (PLoS ONE, 2015).
In all, about 310,000 compounds went through this assay and about 14,000 (4.5%) showed an effect of 50% or more. Effects have a minus sign here. The list shows a part of the results.

What follows are molecules tested against human ether-à-go-go-related gene (hERG) potassium channel (human, UniProt Q12809) (assay: primary screen, population patch clamp on CHO cells stably expressing hERG).
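Note: peak tail current of the secondary pulse compared with the same well before compound.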

Sequence of human ether-à-go-go-related gene (hERG) potassium channel (Q12809 whole entry, looked up): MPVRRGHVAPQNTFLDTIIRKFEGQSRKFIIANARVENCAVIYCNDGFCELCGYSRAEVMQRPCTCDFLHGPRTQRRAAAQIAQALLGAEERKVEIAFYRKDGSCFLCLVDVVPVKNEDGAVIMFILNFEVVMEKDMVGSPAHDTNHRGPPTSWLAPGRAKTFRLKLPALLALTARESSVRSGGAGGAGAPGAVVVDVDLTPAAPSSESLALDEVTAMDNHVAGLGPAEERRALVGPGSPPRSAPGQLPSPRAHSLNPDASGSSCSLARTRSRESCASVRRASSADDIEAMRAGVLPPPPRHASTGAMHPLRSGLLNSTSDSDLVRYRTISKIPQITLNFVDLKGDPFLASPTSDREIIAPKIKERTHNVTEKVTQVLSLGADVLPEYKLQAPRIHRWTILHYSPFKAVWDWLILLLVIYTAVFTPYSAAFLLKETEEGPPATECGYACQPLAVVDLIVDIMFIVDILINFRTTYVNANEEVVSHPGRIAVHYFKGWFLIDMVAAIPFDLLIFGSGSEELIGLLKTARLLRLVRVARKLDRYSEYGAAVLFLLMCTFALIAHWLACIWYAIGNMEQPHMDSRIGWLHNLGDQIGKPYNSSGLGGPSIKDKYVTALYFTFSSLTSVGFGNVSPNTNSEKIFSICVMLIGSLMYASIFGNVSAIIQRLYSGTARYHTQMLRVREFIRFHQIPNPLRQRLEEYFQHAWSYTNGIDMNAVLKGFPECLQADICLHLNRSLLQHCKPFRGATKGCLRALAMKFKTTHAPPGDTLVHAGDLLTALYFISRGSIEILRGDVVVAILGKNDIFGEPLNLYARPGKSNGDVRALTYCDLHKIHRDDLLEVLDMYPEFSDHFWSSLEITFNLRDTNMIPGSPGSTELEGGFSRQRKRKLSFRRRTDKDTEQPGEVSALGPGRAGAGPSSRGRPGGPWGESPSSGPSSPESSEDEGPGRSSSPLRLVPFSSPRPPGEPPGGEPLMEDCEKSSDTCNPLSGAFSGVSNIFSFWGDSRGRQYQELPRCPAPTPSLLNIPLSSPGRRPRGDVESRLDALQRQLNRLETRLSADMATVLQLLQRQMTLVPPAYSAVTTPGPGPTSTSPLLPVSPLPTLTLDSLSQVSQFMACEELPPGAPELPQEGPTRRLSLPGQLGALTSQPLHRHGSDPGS

Compound | hERG current change (%, negative = inhibition) at 10uM [%]
Cc1ccc(C)c(-n2c(-c3csc(C)c3C)n[nH]c2=S)c1 | 11.7
N#Cc1c(SCC(=O)Nc2ccccc2C(F)(F)F)sc2c(O)cc(=O)[nH]c12 | -6.01
CC(=O)O[C@H]1C[C@@]2(C)[C@@H](C[C@@H](O)[C@H]3[C@@]4(C)CC[C@@H](O)[C@@H](C)[C@@H]4CC[C@@]32C)/C1=C(\CCC=C(C)C)C(=O)[O-].[Na+] | -2.41
COCCCNC(=O)c1cccc(OC)c1OC | 9.02
Cc1c(NC(=O)CN2C(=O)NC3(CCCCC3C)C2=O)cccc1[N+](=O)[O-] (centres unmarked) | -18.7
CSc1nc(-c2ccccc2)c(C#N)c(=O)n1C | -18.4
COc1ccc(CN2C(=O)c3ccccc3C(/C=N\OCc3ccc(C)cc3)C2=O)cc1 (centres unmarked) | 8.84
Cc1ccc(C)c(NC(=O)CCC(=O)N/N=C/c2ccc[nH]2)c1 | -4.41
O=C(COc1ccccc1)Nc1ccc(Cl)c(-c2nc3ncccc3o2)c1 | 12.4
CCC1CCCCN1CCCNC(=O)c1ccc(CS(=O)(=O)c2ccccc2OC)o1 (centres unmarked) | 6.46
CC1(C)C2CCC(C2)C1C/C=N/NC(N)=S (centres unmarked) | 0.967
COc1ccc(S(=O)(=O)NCC2CCCN(Cc3ccc(OC)cc3F)C2)cc1 (centres unmarked) | -42
Cc1ccc(S(=O)(=O)N2CCN(C(=O)c3ccc(Br)o3)CC2)c(C)c1 | -55
CSc1nnc(-c2ccc(S(=O)(=O)N3CCCC3)cc2)n1C | -41.6
COc1ccc(NC(=O)C2CCCN(S(=O)(=O)c3c(C)n[nH]c3C)C2)cc1 (centres unmarked) | -1.21
COc1ccccc1-n1nnnc1SCC(=O)NC1CCCC1 | 9.18
Cc1ccc(C(NC(N)=O)c2ccccc2C)cc1 (centres unmarked) | -8.2
COc1ccc(NC(=O)N2CCOCC2)cc1OC | 10.9
Cc1ccc(C(=O)COC(=O)CCN2C(=O)C3C4CCC(C4)C3C2=O)cc1[N+](=O)[O-] (centres unmarked) | -9.49
Cc1cccc(-n2nnc(C(=O)NCc3ccc4c(c3)OCO4)c2N)c1 | 1.39
COc1cc2nc(-c3cccs3)oc(=O)c2cc1OC | 4.77
Sc1oc(-c2ccccc2)cc1C=Nc1ccccc1 | -16.8
CCOc1ccccc1OCCCCN1CCCC1 | -17.2

Compound | hERG current change (%, negative = inhibition) at 10uM [%]
O=C(COc1ccc(Br)cc1)N1CCN(c2ccc([N+](=O)[O-])c(N3CCCCC3)c2)CC1 | -14.1
O=C1/C(=N\S(=O)(=O)c2cccs2)C([n+]2ccccc2)=C([O-])c2ccccc21 | 33.6
CCOCC(=O)Nc1nnc(C2CCCCC2)s1 | 8.38
O=S(=O)(c1ccc(NCCc2c[nH]c3ccccc23)nc1)N1CCOCC1 | -18.5
CC(=O)c1cc(CN2CCC(C(=O)Nc3cccc(-c4cscn4)c3)CC2)cs1 | -30.5
CCOc1ccc(NCc2ccccc2OCc2cccc(F)c2)cc1.Cl | -3.71
CC(C)Oc1ccc(CSC(=N)N)cc1.Cl | -15.2
COc1ccc2cc(C(=O)NCCCN3CCCC3=O)[nH]c2c1 | 11.2
CC(=O)Nc1cccc(S(N)(=O)=O)c1C | 18.5
COc1ccc(-c2cc(C(=O)N3CCOCC3)c3ccccc3n2)cc1OC | -22.7
NC(=O)CC12CC3CC(C1)CC(CC(N)=O)(C3)C2 | -0.0946
CCOC(=O)[C@H]1[C@H]2COc3ccc(Br)cc3[C@@H]2N2C(=O)c3ccc(F)cc3NC(=O)[C@@]12C | -1.78
Cc1ccc(C)c2c1c1ccccc1n2C | 0.543
COc1cc(CNC(C)C23CC4CC(CC(C4)C2)C3)cc(OC)c1OC.Cl (centres unmarked) | 4.56
COc1ccc(C(=O)CC(=O)C(=O)Nc2ccc(C)cc2Cl)cc1 | 2.73
Cc1cc(C)n2nc(SCC(=O)N/N=C/c3ccc(F)cc3)nc2n1 | -8.76
COc1ccccc1CSc1ncc(-c2ccc([N+](=O)[O-])cc2)[nH]1 | -13.8
CSc1ccc(C2(O)Cc3cccc[n+]3C2c2ccccc2)cc1.[Br-] (centres unmarked) | -2.54
CN(C)CCN(Cc1cc2cc3c(cc2nc1Cl)OCO3)C(=O)c1ccco1 | -6.26
Cc1ccc[n+](CC(=O)c2ccc(NC(=O)c3ccccc3)cc2)c1C | 19.4
COc1ccc(NC(=O)C2CC(=O)N/C(=N/N=C/c3ccco3)S2)cc1 (centres unmarked) | -3.54
Cc1cc(OCC(=O)N2CCCCCC2)ccc1[N+](=O)[O-] | -4.46
Cc1ccc(-n2nc3c(=O)n(C(C)C(=O)NCc4ccc(Cl)cc4)nc(C)c3c2C)cc1 (centres unmarked) | -63.5

Compound | hERG current change (%, negative = inhibition) at 10uM [%]
O=C(CSc1nnnn1-c1ccccc1)Nc1ncc2c(n1)CC(c1ccco1)CC2=O (centres unmarked) | -19
COCc1cc(C)nc(N2CCNCC2)c1C#N | 7.28
O=C(c1ccc(OCC2CCCO2)cc1)N1CCN(c2ccccc2)CC1 (centres unmarked) | -2.93
CCO[C@H]1OC(C(=O)Nc2ccccc2)=C[C@@H](c2coc3ccccc3c2=O)[C@@H]1CCCO | -28.5
CC(C)(C)OC(=O)NCCc1n[nH]c(=S)o1 | 14.7
COc1ccc(S(N)(=O)=O)cc1C(=O)OCCCC(=O)c1ccccc1 | -8.68
CCN(CC)CCNC(=O)c1ccc(NC(=O)c2cn(-c3ccc(F)cc3)nc2-c2cccc(OC)c2)cc1 | -31.3
O=c1[nH]c(-c2ccccn2)nc(C(F)(F)F)c1Br | 0.682
COc1ccc(-c2coc3c(CN4CCOCC4)c(O)ccc3c2=O)cc1 | -21.1
CCCCN(c1ccc(C(=O)OC)cc1)S(=O)(=O)c1ccccc1 | -9.02
CCOCCCNC(=O)C(NC(=O)Cc1cccs1)c1ccccc1 (centres unmarked) | 3.89
CC(=O)Nc1ccc(C(=O)CSc2nnnn2C(C)C)cc1 | 16.7
CC(c1ccccc1)n1cnc2ccccc2c1=O (centres unmarked) | 18.5
Cn1nc(C(F)(F)F)c(C(=O)Nc2ccc(Cl)cc2)c1Cl | -22.1
O=C(Nc1ccc(OCC(=O)N2CCOCC2)cc1)Nc1cccc(Cl)c1 | -7.18
COC(=O)CNc1nc(-c2ccccc2F)nc2ccccc12 | 3.08
CC1(C)CC(c2nc(-c3ccc(Cl)cc3)cs2)CCS1.Cl (centres unmarked) | 7.39
COC(=O)c1cccc(Nc2nc(-c3cccnc3)nc3ccccc23)c1 | -2.49
Nc1ccc(Cl)cc1C(=O)OCC(=O)NC1CCS(=O)(=O)C1 (centres unmarked) | 11.8
COc1ccc(C(=O)NNc2cc(C)nc(NNC(=O)c3ccc(OC)cc3)n2)cc1 | 7.94
Cc1cc(NCCc2ccccc2F)n2ncnc2n1 | -1.21
CC(NC(=O)C(=O)N1CCOCC1)C(c1cccs1)N1CCN(c2ccccc2F)CC1 (centres unmarked) | -13.7
Cc1ccc(Oc2nc3ccccn3c(=O)c2/C=C(\C#N)C(=O)NC2CCS(=O)(=O)C2)c(C)c1 (centres unmarked) | 3.83

Compound | hERG current change (%, negative = inhibition) at 10uM [%]
COc1ccc(C(CNC(=O)c2ccc(S(=O)(=O)N(C)C)cc2)N2CCCCC2)cc1 (centres unmarked) | -9.82
COc1cccc(COC(=O)C2CC(=O)N(Cc3ccco3)C2)c1OC (centres unmarked) | 12.3
CCCOc1c(Br)cc(C(=O)OCC(=O)NC2CC2)cc1OC | 8.36
CCOC(=O)Nc1ccccc1C(=O)N1CCOCC1 | 5.87
Cc1cc(C)cc(N2CC(C(=O)OCC(=O)Nc3cc(C)on3)CC2=O)c1 (centres unmarked) | 19.1
CC(C)(C)SCCNC(=O)CN1C(=O)c2ccccc2S1(=O)=O | -5.6
Nn1c(SCC(=O)NC(=O)NC2CCCC2)nnc1-c1ccccc1F | -13.3
N#Cc1c(C(F)(F)F)cc(-c2ccccc2)n(N)c1=O | 13.9
CC(C)c1onc(C(=O)N2C(C)CCCC2C)c1[N+](=O)[O-] (centres unmarked) | 18.8
CN(C)C(=O)c1nnc(Cc2ccc(Cl)cc2)o1 | 15.9
O=C(Nc1c2c(nn1-c1ccccc1)CS(=O)(=O)C2)c1ccc2c(c1)OCO2 | 3.47
C=CCSc1ncccc1C(=O)NCc1ccc(C)cc1 | -10.3
COc1ccc(CC(=O)NCCC2=CCCCC2)cc1 | 15
O=C1C2CCCN2C(c2cccnc2)N1c1nccs1 (centres unmarked) | 5.02
Cc1cccc(N2CCN(C(=O)c3ccccn3)CC2C)c1 (centres unmarked) | 14
CCCCC1=C([O-])C2N=CC=CC2=[N+](c2ccccn2)C1=O (centres unmarked) | 0.715
CC(=O)c1c(C)[nH]c(C(=O)OCc2c(F)cccc2Cl)c1C | 5.08
COc1ccccc1-c1nnc(SCC(=O)NC2CCCCC2)o1 | -27.4
Cc1cccc(Cn2cnc3c(nnn3Cc3ccc(Cl)cc3)c2=O)c1 | 5.51
N#Cc1ccc(Sc2ccccn2)c([N+](=O)[O-])c1 | -61.5
